Results taken from the supplement of paper PMC3334620.
In all, about 33,000 sequences were measured (“E-score (-0.5 to 0.5)”: median about -0.035, highest 2% from about 0.34 on). The list shows a part of the results.

Target: T1, Mot3 (UniProt P54785)
T1 sequence: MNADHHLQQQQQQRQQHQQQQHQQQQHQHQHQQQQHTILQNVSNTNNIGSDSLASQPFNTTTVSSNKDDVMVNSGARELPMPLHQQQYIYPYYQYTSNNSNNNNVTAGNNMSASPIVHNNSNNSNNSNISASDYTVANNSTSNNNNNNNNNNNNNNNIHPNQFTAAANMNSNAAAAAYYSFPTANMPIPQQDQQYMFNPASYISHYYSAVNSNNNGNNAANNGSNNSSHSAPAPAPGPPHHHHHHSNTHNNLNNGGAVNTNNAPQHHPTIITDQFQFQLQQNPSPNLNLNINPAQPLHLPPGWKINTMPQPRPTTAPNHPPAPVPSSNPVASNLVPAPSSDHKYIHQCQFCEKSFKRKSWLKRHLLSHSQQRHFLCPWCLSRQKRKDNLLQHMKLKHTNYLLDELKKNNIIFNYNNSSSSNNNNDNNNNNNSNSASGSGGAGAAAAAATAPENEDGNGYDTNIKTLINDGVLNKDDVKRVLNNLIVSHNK
Experiment: PBM E-score (8-mer binding enrichment) (E-score (-0.5 to 0.5)); higher = stronger / more preferred TF binding; most listed sequences are background and not binding sites
Settings: protein concentration: 200 nM; construct: GST-full length
In short: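 Universal all-10-mer Agilent arrays, fresh or stripped once, were converted to double-stranded form by primer extension. GST-tagged yeast transcription factors from PURExpress in vitro transcription/translation, full-length or DNA-binding domain only, were applied at about 100-200 nM and detected with fluorescent anti-GST. After masliner normalisation, the Universal PBM Analysis Suite scored each ungapped eight-base word together with its reverse complement by E-score.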

| Sequence | PBM E-score |
| --- | --- |
| TATCTCCA | -0.0122 |
| CCTGCCAA | 0.0278 |
| CTACTTGC | 0.0102 |
| AGAGGACG | -0.0487 |
| CTATACAC | 0.254 |
| GAACGGCC | -0.226 |
| ATCGGAGA | -0.161 |
| ATGCGTTC | 0.121 |
| AACTAGCT | -0.0073 |
| AAACAGGG | -0.108 |
| AAGTCCTA | -0.0798 |
| ACCCCGAA | 0.0302 |
| AAAGACGC | -0.0791 |
| ACGCTTGC | -0.135 |
| AATCTGTC | -0.123 |
| GTGAACAA | 0.187 |
| ACGATACA | 0.229 |
| ACTACCCC | -0.265 |
| AGTGCTAG | -0.116 |
| GCCAAGAA | -0.101 |
| TCTCAAAA | 0.00526 |
| CAAGTGGC | 0.0413 |
| CGGCTCCC | -0.347 |
| CGCGCTTC | -0.0926 |
| CACCTGAC | -0.0549 |

| Sequence | PBM E-score |
| --- | --- |
| ATAAGCTG | -0.108 |
| ATTCGGGG | -0.183 |
| AACAGCTT | -0.0338 |
| ATCGCGCC | -0.0399 |
| GGAGTAAA | 0.155 |
| CGGAGCGA | -0.0864 |
| AACCATAT | -0.124 |
| GGTTAGGA | -0.15 |
| GCACCGTA | 0.041 |
| GGTGCGGA | -0.051 |
| GCCTTACC | 0.0815 |
| AGTTCCGG | -0.359 |
| AACTACAA | 0.142 |
| AATGATGT | 0.105 |
| GAAGCCTC | -0.15 |
| TGAGTCCA | -0.225 |
| TAGACATA | 0.135 |
| AGACTCAT | -0.122 |
| ACTCAGAG | -0.101 |
| AGGGTACT | -0.189 |
| ATCCAGCG | -0.127 |
| CTAGTATA | 0.0657 |
| ACGAACCT | -0.0403 |
| ATTCGGAA | -0.0973 |
| CGCACAAA | 0.0214 |

| Sequence | PBM E-score |
| --- | --- |
| TGTCAACA | 0.306 |
| AAACTTGG | -0.0906 |
| ATAGCCTC | -0.234 |
| GGTCCCGA | -0.21 |
| CGCGCTAC | 0.0433 |
| GCCGGATA | -0.208 |
| GGGTTTCA | -0.0357 |
| CCTACTGA | 0.022 |
| ACACGGAG | 0.166 |
| CTCTTTCC | -0.166 |
| CAGACAAC | 0.00587 |
| ATGTAACC | 0.166 |
| ACTCGGTG | -0.144 |
| GAAGTACA | 0.184 |
| CACGCTAC | 0.0426 |
| AAAGGAGC | -0.0351 |
| CCAGCTAC | -0.0525 |
| CGATCGCC | -0.125 |
| AACGTCCC | 0.0985 |
| TAAGCCCA | -0.042 |
| AAGGGTCC | -0.00676 |
| CTATTACA | 0.378 |
| GTGGACAA | 0.00658 |
| CGAGTGTC | -0.186 |
| GAACCTCA | -0.0997 |

| Sequence | PBM E-score |
| --- | --- |
| GGGTCGGA | -0.125 |
| ACTGGTGG | -0.246 |
| CGGGTGTC | -0.0642 |
| AGCGCCTA | 0.246 |
| CAGCTTTA | -0.00271 |
| AAGACTCC | -0.284 |
| ACTAGCCA | -0.0663 |
| AGTATAAA | 0.2 |
| CGTCTGTA | 0.135 |
| ACAATGGG | 0.0724 |
| GCGCTCAC | -0.22 |
| AGGATGAA | -0.169 |
| ATGGGCAC | 0.333 |
| GAGCGGGC | -0.0797 |
| AGTAGAGA | -0.00099 |
| CTAGGACC | -0.347 |
| CTCGGTAC | -0.107 |
| TACCGGAA | -0.116 |
| CCCGACAA | 0.0417 |
| CCCGCGTA | 0.172 |
| CACGTTAA | 0.313 |
| AGCTGCGG | -0.289 |
| GCGCTATA | -0.0427 |
| ATCTGTTG | -0.013 |
| TGAGACCA | 0.0857 |

| Sequence | PBM E-score |
| --- | --- |
| CTGCACGC | -0.109 |
| AAGCCTAG | -0.0459 |
| ACAGATCG | -0.134 |
| AGACAATC | 0.0374 |
| AAAGCTCA | -0.0501 |
| GAAACCCA | 0.0753 |
| CTTAACAA | 0.245 |
| AGTCCCGG | -0.218 |
| AATCCATA | 0.0376 |
| CGCGATAC | -0.0435 |
| CTCGTGCA | -0.143 |
| CGGAATCC | -0.253 |
| CGACTAGA | -0.0287 |
| CCAGGCTA | -0.195 |
| ACTCACCG | -0.239 |
| GCTTACTA | 0.0818 |
| ACAACGGG | 0.07 |
| CCACGTCG | -0.15 |
| AGAATCAC | -0.211 |
| AGAATGAG | -0.0739 |
| AGGCGAGA | -0.182 |
| ACCAGGAC | -0.0344 |
| ACAAGAAA | 0.142 |
| CCTTTCTA | 0.101 |
| GACACAAA | 0.082 |

| Sequence | PBM E-score |
| --- | --- |
| CGTAGGAC | -0.166 |
| TCACGTGA | -0.0741 |
| GTCCCAAA | -0.0951 |
| CTAACTAC | 0.0583 |
| CAGGCTCG | 0.342 |
| GGAACAAA | 0.305 |
| GAAAATTA | 0.235 |
| GCGACTCA | -0.142 |
| CTTGAGCA | -0.19 |
| ACGGCAAT | 0.0994 |
| CATTTGAC | 0.0257 |
| CCGACGGA | -0.274 |
| GTAGGACA | 0.0541 |
| CATGCTGA | 0.17 |
| CAACGCCA | 0.039 |
| TTCCCAAA | 0.0393 |
| ACGTGCGC | 0.146 |
| TAAAAAGA | -0.0801 |
| GCCCTATA | -0.216 |
| ATCCGGCC | -0.273 |
| CTTGACAC | 0.143 |
| AGCCGCCG | -0.252 |
| AACACCTG | 0.251 |
| ATACTGAA | 0.0137 |
| AAGGAACG | 0.465 |

| Sequence | PBM E-score |
| --- | --- |
| ATCATACG | 0.00597 |
| AGAACATA | 0.156 |
| ACTTCAGG | 0.053 |
| CATACTGG | -0.0594 |
| GTTCTGTA | 0.126 |
| ATACGAGC | 0.0965 |
| CTGGAACC | -0.17 |
| AACCAGCT | 0.0762 |
| AGTCAGAT | -0.0193 |
| CTTAACGC | 0.204 |
| ACCCCAGG | 0.00741 |
| CCAATGGA | -0.26 |
| CAGCTGGC | -0.0634 |
| GAAGCATC | -0.239 |
| CGTTGACC | -0.0213 |
| ATGTGTAA | 0.352 |
| CAGTGCGC | -0.292 |
| GAACATCA | 0.0642 |
| GCTCGTCC | -0.215 |
| ACGACGAC | -0.22 |
| GAGTTAAC | 0.0651 |
| CCAGGCGC | -0.00734 |
